Laboratory results published in PubChem BioAssay AID624417 (National Center for Advancing Translational Sciences (NCATS), 2012).
Out of some 410,000 compounds screened, about 6,400 (1.6%) were called active. The shares of active, inactive and inconclusive entries below differ from those in the screen. The call rests on the fitted dose curve; in most records, active means well fitted inhibition curve with a large enough effect; inconclusive means small, poorly fitted or top-dose-only effect; inactive means no such curve, though single readings can be large or run the other way. No potency is given beside an inconclusive call; the fits are too rough.
Further: nearly all actives have a fitted effect of over 55% in size.
On the % scale 0 is the no-effect control and ±100 the full control effect; potency means the concentration at half of the fitted maximal effect; tags describe the fitted curve by direction and shape.

The compounds below were run against Glucagon-like peptide 1 receptor (Homo sapiens) (UniProt P43220) (assay: qHTS of GLP-1 Receptor Inverse Agonists (Inhibition Mode)). Conditions: HEK293 GLP-1R CRE-luciferase, luminescence, 24 h, GLP-1R form is constitutively active; activity change, negative = inhibition: at 38.3 µM (top of the series) unless noted.
Sequence of UniProt P43220 (P43220 whole entry, looked up): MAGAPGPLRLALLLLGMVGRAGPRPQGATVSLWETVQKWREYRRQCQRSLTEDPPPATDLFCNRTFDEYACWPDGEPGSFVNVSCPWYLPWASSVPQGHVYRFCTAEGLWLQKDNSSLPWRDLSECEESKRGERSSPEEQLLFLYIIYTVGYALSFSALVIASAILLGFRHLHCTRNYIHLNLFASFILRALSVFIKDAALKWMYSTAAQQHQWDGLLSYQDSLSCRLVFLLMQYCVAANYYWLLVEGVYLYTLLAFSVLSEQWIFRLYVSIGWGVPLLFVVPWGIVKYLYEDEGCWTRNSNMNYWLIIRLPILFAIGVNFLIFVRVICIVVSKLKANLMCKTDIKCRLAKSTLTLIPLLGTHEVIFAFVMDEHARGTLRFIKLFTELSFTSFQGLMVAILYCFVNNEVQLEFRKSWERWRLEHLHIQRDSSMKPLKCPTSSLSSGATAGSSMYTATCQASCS
In short: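 HEK293 cells stably co-expressing a cAMP-responsive luciferase reporter and constitutively active GLP-1R were seeded, incubated 12 h, then exposed to compounds for 24 h at 37 C. Luminescence was read 12 min after detection reagent; inverse agonists lower signal.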
With `Cc1cccc(C(=O)n2c(=S)nc3ccccn32)c1` the Potency was inconclusive [inhibitor, single point]. `N#CC1(NC(=O)CSc2nc3ccc([N+](=O)[O-])cc3s2)CCCCC1` was tested, and the Potency was inconclusive [inhibitor, single point]. `CC1=CC2=NC(=O)/C(=C/c3cccn3Cc3ccccc3)C(=N)N2O1` was tested, and the Potency was inconclusive [inhibitor, single point]. In the case of `O=C1C2C(c3ccccc3)CC=CC2[C@H](c2ccc(C(F)(F)F)cc2)N1Cc1ccccc1` (stereo partly specified), the Potency is reported as inconclusive [inhibitor, full curve, poor fit]. For `Cc1ccc(NC2CCCN(C(=O)CCC(=O)c3ccccc3)C2)cc1C` (stereo unspecified), the Potency was inconclusive [inhibitor, single point]. For `CCN1CCN(c2ccc(S(=O)(=O)N3CCOCC3)cc2NC(=O)C(C)Oc2ccc(Cl)cc2)CC1` (stereo unspecified), the Potency was inconclusive [inhibitor, single point]. With `Nc1ccccc1SC/C=C/CSc1ccccc1N` the activity change, negative = inhibition was inconclusive: -77.3% [inhibitor]. In the case of `Cc1ccc(S(=O)(=O)N2CCN(C(=O)c3cc(S(=O)(=O)N(C)C)ccc3N3CCCC3)CC2)c(C)c1`, the Potency is reported as inconclusive [inhibitor, partial curve]. For `O=C(Nc1ccc(N2CCN(C(=O)c3ccccc3)CC2)c(Cl)c1)c1ccco1`, the Potency was inconclusive [inhibitor, partial curve]. In the case of `COc1ccccc1NC(CC(=O)c1ccccc1)C(=O)OCC(=O)c1ccc(C)c(C)c1` (stereo unspecified), the Potency is reported as inconclusive [inhibitor, partial curve, poor fit]. For `COc1ccc(C(=O)OCC(=O)NCC2CCCCC2)cc1F`, the “activity change, negative = inhibition” value was inactive: 17.4%. For `O=C(CN(Cc1ccco1)S(=O)(=O)c1ccccc1)N/N=C/c1cccc(O)c1`, the Potency was inconclusive [inhibitor, single point]. For `Nc1nc2ccccc2n1/N=C/c1ccc(-c2ccccc2)o1`, the Potency was inconclusive [inhibitor, partial curve, poor fit]. For `c1ccc2c(c1)nc(N1CCOCC1)c1ccccc12`, the Potency was inconclusive [inhibitor, single point]. `Cc1ccc(CNC(=O)CCS(=O)(=O)c2ccc3c(c2)NC(=O)C(C)S3)cc1` (stereo unspecified) was tested, and the Potency was inconclusive [inhibitor, partial curve, poor fit]. In the case of `O=C1NC(=S)N/C1=C/c1cccnc1`, the Potency is reported as inconclusive [inhibitor, full curve]. `CN1CCN(Cc2nc(Cc3cccc(F)c3)no2)CC1c1ccccc1` (stereo unspecified) was tested, and the Potency was inconclusive [inhibitor, partial curve]. In the case of `CCc1ccccc1NC(=O)C1(S(=O)(=O)c2ccc(C)cc2)CC1`, the Potency is reported as inconclusive [inhibitor, partial curve, poor fit]. In the case of `CCc1ccc(NC(=O)CSc2nc(=O)n(CCCN(C)C)c3c2CCC3)cc1`, the Potency is reported as inconclusive [inhibitor, partial curve, poor fit]. For `O=C(Cc1cccs1)Nc1nc(-c2ccc(F)c(F)c2)cs1`, the Potency was inconclusive [inhibitor, partial curve, poor fit]. With `CCOC(=O)c1cc(-c2ccc(F)cc2)n(CCC(=O)NC2CCCCC2)c1C` the Potency was inconclusive [inhibitor, single point]. For `CC(C)(C)C(=O)Cn1ncc(Cl)c(Cl)c1=O`, the Potency was inconclusive [inhibitor, single point]. With `COc1cc(CCNC(=O)c2cnn3ccccc23)cc(OC)c1OC` the Potency was inconclusive [inhibitor, partial curve, poor fit]. `C[C@H]1CN([C@@H](C)CO)C(=O)c2cccc(NC(=O)Nc3ccc(C(F)(F)F)cc3)c2O[C@@H]1CN(C)S(=O)(=O)c1ccccc1` was tested, and the Potency was inconclusive [inhibitor, single point]. `CC(C)c1cc(NCCOCCO)n2c(nc3ccccc32)c1C#N` was tested, and the “activity change, negative = inhibition” value was inactive: 45.7%. With `c1ccc2nc(N3CCOCC3)c(N3CCCC3)nc2c1` the Potency was inconclusive [inhibitor, partial curve, poor fit]. With `CCOC(=O)c1c(-c2ccc(C)c(C)c2)csc1NC(=O)C1CC=CCC1C(=O)O` (stereo unspecified) the Potency was inconclusive [inhibitor, single point]. In the case of `COCCCN=Cc1c(-c2ccccc2)[nH]n(-c2nc3ccccc3s2)c1=O`, the Potency is reported as inconclusive [inhibitor, single point]. `COc1ccc2c(Cl)c(-c3nnc4n3CCCCC4)sc2c1` was tested, and the “activity change, negative = inhibition” value was inactive: 54.9%. `O=C(NC(c1ccc(-c2ccccc2)cc1)c1cnccn1)C1CCN(CCOc2ccc(F)cc2)CC1` (stereo unspecified) was tested, and the Potency was inconclusive [inhibitor, partial curve, poor fit]. In the case of `Nc1c(C(=O)NCc2ccccc2)nnn1Cc1cccc(Br)c1`, the Potency is reported as inconclusive [inhibitor, full curve, poor fit]. In the case of `Cc1ccc(CCS(=O)(=O)c2ccc(C(C)(C)C)cc2)cn1`, the Potency is reported as inconclusive [inhibitor, single point]. In the case of `NC(=S)NN=C1CCCCCCCCCC1`, the Potency is reported as inconclusive [inhibitor, full curve, poor fit]. `CCOC(=O)[C@]12CCCC=C1N(Cc1cccc3ccccc13)C(=O)[C@H](CC(=O)NCCc1ccccc1OC)C2` was tested, and the Potency was inconclusive [inhibitor, partial curve, poor fit]. In the case of `CC(C)N1CC2(CC(c3ccccc3C(F)(F)F)=NO2)CN1C(=O)c1ccco1` (stereo unspecified), the Potency is reported as inconclusive [inhibitor, single point]. `Nc1nc(Nc2ccccc2)nc2ccccc12` was tested, and the Potency was inconclusive [inhibitor, single point]. In the case of `O=S(=O)(c1ccc(OCC2CO2)cc1)c1ccc(OCC2CO2)cc1` (stereo unspecified), the Potency is reported as active: 10 µM. For `Cc1ccc(NC(=O)C2CC(=O)N(CCc3ccccc3)C2)cc1Cl` (stereo unspecified), the Potency was inconclusive [inhibitor, single point]. In the case of `O=C(c1ccccc1F)N1CCC2CC1c1cc(-c3ccc4c(c3)OCO4)ccc12` (stereo unspecified), the Potency is reported as inconclusive [inhibitor, single point]. For `O=C(Nc1ccccc1Cl)c1cc(C2CCCN(C(=O)c3ccccc3)C2)on1` (stereo unspecified), the Potency was inconclusive [inhibitor, single point]. With `CCc1noc(C)c1C(=O)Nc1nc(-c2ccc(F)cc2)c(C)s1` the Potency was inconclusive [inhibitor, partial curve, poor fit]. With `COc1ccc(CNC(=O)C(c2cccs2)N(Cc2ccco2)C(=O)Cc2cccs2)cc1` (stereo unspecified) the Potency was inconclusive [inhibitor, partial curve, poor fit]. For `O=C(c1ccccc1F)N1CCN(Cc2ccccc2F)CC1`, the “activity change, negative = inhibition” value was inactive: -36.1%. In the case of `Cc1ccc(CS(=O)Cc2ccc(C(=O)NCc3ccccc3Br)o2)cc1` (stereo unspecified), the Potency is reported as inconclusive [inhibitor, partial curve, poor fit]. `O=C(Nc1cnccn1)c1ccc(Cl)cc1` was tested, and the Potency was inconclusive [inhibitor, single point]. For `C=CCn1c(=NC(=O)c2ccco2)sc2cc(C(=O)OC)ccc21`, the “activity change, negative = inhibition” value was inactive: 8.32%. `Cc1cc(C)cc(Nc2cc(C(=O)NCc3ccccc3)c3ccccc3n2)c1` was tested, and the Potency was inconclusive [inhibitor, partial curve, poor fit]. In the case of `CCn1c(CN2CCCCC2)nc2cc(S(=O)(=O)N3CCCCC3)ccc21`, the Potency is reported as inconclusive [inhibitor, full curve, poor fit]. For `Cc1ccc(-c2noc(C3CCCN(C(=O)c4cccc(F)c4)C3)n2)cc1` (stereo unspecified), the Potency was inconclusive [inhibitor, single point]. `CCCC(=O)Nc1ccc(Sc2ccc([N+](=O)[O-])cc2)cc1` was tested, and the Potency was inconclusive [inhibitor, partial curve, poor fit]. In the case of `Cc1ccc(-c2noc(C3CCCN(C(=O)c4ccccc4Br)C3)n2)cc1` (stereo unspecified), the Potency is reported as inconclusive [inhibitor, partial curve, poor fit]. For `O=C(CCCNS(=O)(=O)c1ccc(Cl)c(Cl)c1)NCCc1ccccn1`, the “activity change, negative = inhibition” value was inactive: 2.8%. For `O=C(O)c1cccc(NC(=S)N/N=C/c2cccc(O)c2)c1`, the Potency was inconclusive [inhibitor, partial curve]. For `CCOC(=O)c1c(CSc2ccccc2)oc2cc(Br)c(O)c(CN(C)C)c12`, the Potency was inconclusive [inhibitor, partial curve, poor fit]. In the case of `Fc1ccccc1Nc1nc(NCc2ccco2)nc(N2CCOCC2)n1`, the Potency is reported as inconclusive [inhibitor, single point]. `COc1cccc(S(=O)(=O)NCc2ccc(C(=O)N3CCN(C)CC3)cc2)c1` was tested, and the Potency was inconclusive [inhibitor, full curve, poor fit]. With `O=S1(=O)c2ccc(Br)cc2N2CCC[C@@H]2CN1C1CC1` the Potency was inconclusive [inhibitor, partial curve, poor fit]. In the case of `O=C(COC(=O)c1ccccc1[N+](=O)[O-])c1ccc2c(c1)OCO2`, the Potency is reported as inconclusive [inhibitor, full curve]. `O=S(=O)(N/N=C1/CC(c2ccccc2)Oc2ccccc21)c1ccc(Br)cc1` (stereo unspecified) was tested, and the Potency was inconclusive [inhibitor, partial curve, poor fit]. For `CCOc1ccccc1Oc1coc2cc(OC(=O)c3ccco3)ccc2c1=O`, the “activity change, negative = inhibition” value was inactive: 2.65%. For `O=C(NC1CCCC1)c1cccc(Cn2cc([N+](=O)[O-])cn2)c1`, the “activity change, negative = inhibition” value was inactive: -1.07%.
